Test results as given in PubChem BioAssay AID1508642 (National Center for Advancing Translational Sciences (NCATS), 2021).
Out of some 43,000 compounds screened, about 200 (0.47%) were called active. The shares of active, inactive and inconclusive entries below differ from those in the screen. The call rests on the fitted dose curve; in most records, active means well fitted cell-killing curve with a large enough effect; inconclusive means small, poorly fitted or top-dose-only effect, or effect the other way; inactive means flat fitted curve, though single readings scatter. Where the call is inconclusive, the potency comes from a doubtful curve fit.
Potency means the concentration at half of the fitted maximal effect; tags describe the fitted curve by direction and shape.

Test: Cell viability qHTS assay in S16 Pmp22-F2sN cells; further: nearly all actives have a fitted effect of over 65% in size
Details: S16 Pmp22-F2sN Schwann cells (luciferase reporters placed in the Pmp22 gene) viability, CellTiter-Glo, 24 h; series mostly up to 57.5 µM
Source text: Assay Provider: Jim Inglese Ph.D. National Center for Advancing Translational Science, National Institutes of Health, Rockville, MD CMT is a heterogeneous group of neurological disorders that affect approximately 1 in 2,500 people. In particular, the most common form of CMT, CMT1A is genetically linked to the duplication of the PMP22 gene which leads to Schwann cell overexpression, thus manifesting itself as a typical case of dose-sensitive diseases. To identify small molecule compounds that can mediate the expression of PMP22 we developed a phenotypic assay screening strategy by utilizing genome editing techniques to construct Schwann cell lines containing novel reporter technology to monitor the transcriptional or translational regulation of PMP22. For high sensitivity we use a bioluminescent reporter system embedded in the 3' UTR of the PMP22 gene (S16(c9) Pmp22-F2sN) to identify compounds that inhibit gene expression. […] We can further discriminate the effect of all transcriptionally active molecules on PMP22 translation or stability with an assay that incorporates a short NLuc peptide (HiBiT) at the C-terminus of expressed PMP22 (S16(f8) PMP22-HiBiT) allowing alpha complementation and luminescence detection of membrane-associated PMP22 protein. These assays were screened against the NCATS Sytravon Library Collection. Miniaturization of these assays to 1536-well plate format for quantitative high throughput screening (qHTS) yielded rich data sets immediately from the qHTS assay (S16(c9) Pmp22-F2sN), when compared with data from a cell viability assay (Cell TiterGlo) to identify compounds that decreased the output signals through cellular toxicity to streamline the selection process of actives for subsequent characterization using the HiBiT assay (S16(f8) PMP22-HiBiT).
Cell viability assay in S16 Pmp22-F2sN cells PROTOCOL TABLE (format as described by Inglese J, Shamu CE and Guy RK. 2007) SEQUENCE No. (e.g., 1, 2, 3, etc.); […] (e.g., Cells, Incubation, Reagent, etc.); VALUE and DESCRIPTION. 1. Cells. Add 500-1,000 cells in 4 uL in growth media (DMEM High Glucose, No Phenol Red media + 10% heat-inactivated FBS + 1% Pen/Strep supplemented media) per well into Greiner 1536-well white/solid bottom high base, TC-treated plates. 2. Compounds. Library compounds and controls added at 23nL per well, transferred by Pin Tool. 3. Incubation. Incubate plates at 37C, 5% CO2, 95% RH for 24 h. 4. Reagent. Add 3uL CellTiter-Glo per well of Greiner 1536-well plates. 5. Incubation. Incubate plates at room temperature for 15 min., protect from light. 6. Detector. FLuc luminescence measured using CCD-based camera (Viewlux). NOTES (numbers refer to Sequence numbers above; values are from representative experiments) 6. Luminescence Read: Clear filter; Exposure = 1 sec, Gain = High, Speed = Slow, Binning = 2X REFERENCES: 1. Inglese J, Shamu CE and Guy RK, Reporting data from high throughput screening of small molecule libraries, Nature Chemical Biology, 2007, 3(8): 438-441. doi.org/10.1038/nchembio0807-438 2. Yasgar A, Shinn P, Jadhav A, Auld DS, Michael S, Zheng W, Austin CP, Inglese J and Simeonov A, Compound Management for Quantitative High-Throughput Screening. J. Assoc. Lab. Auto., 2008, 13: 79-89. doi: 10.1016/j.jala.2007.12.004
In the case of `Cc1ccc(Cn2c(CN3CCC(C(=O)NCc4cccnc4)CC3)cc3ccccc32)cc1`, the Potency is reported as inconclusive: 31.6 µM [cytotoxic, single point].
With `COc1ccc(C(=O)Nc2ccc3nc(SCC(=O)N4CCCC4)sc3c2)cc1` the Potency was inconclusive: 6.31 µM [rising, full curve, poor fit].
With `COc1ccc(NC(=O)c2ccc3oc(=O)c(S(=O)(=O)c4ccc(F)cc4)cc3c2)cc1OC` the Potency was “inactive”.
In the case of `Cc1ccc(S(=O)(=O)c2nnn3c2nc(NC2CCCCCC2)c2sccc23)cc1C`, the Potency is reported as “inactive”.
With `CC(=O)Nc1cccc(NC(=O)CSc2nccn2Cc2ccc3c(c2)OCO3)c1` the Potency was “inactive”.
With `Cc1ccccc1OC(=O)c1cc(-c2ccc3c(c2)OCCO3)on1` the Potency was “inactive”.
For `Cc1ccc(NC(=O)N2CC3CCCN3c3ccccc32)cc1Cl` (stereo unspecified), the Potency was inconclusive: 35.5 µM [cytotoxic, partial curve, poor fit].
For `O=C(Cn1ncc2c3ccccc3n(Cc3ccccc3F)c2c1=O)N1CCCCCC1`, the Potency was inconclusive: 20 µM [cytotoxic, single point].
In the case of `CCc1ccccc1NC(=O)Cn1nnc2sc3c(c2c1=O)CCC(C(C)(C)C)C3` (stereo unspecified), the Potency is reported as inconclusive: 39.8 µM [cytotoxic, single point].
In the case of `COc1cccc(CNC(=O)C2CCN(S(=O)(=O)c3c(C)noc3/C=C/c3cccs3)CC2)c1`, the Potency is reported as inconclusive: 39.8 µM [cytotoxic, single point].
For `CCOc1ccc(NC(=O)c2oc3ccccc3c2NC(=O)C(C)(C)C)cc1`, the Potency was inconclusive: 1.41 µM [rising, full curve, poor fit].
In the case of `COc1cc(Nc2ncc3c(n2)CCN(Cc2ccc(OC(C)C)c(OC)c2)C3)cc(OC)c1`, the Potency is reported as inconclusive: 28.2 µM [cytotoxic, single point].
For `CCC(=O)N1CCc2cc(S(=O)(=O)NCCC(=O)Nc3ccc(CC)cc3)ccc21`, the Potency was inconclusive: 8.91 µM [cytotoxic, partial curve].
In the case of `O=C(CSc1nc2ccsc2c(=O)n1-c1ccc(Cl)cc1)NCc1ccc(Cl)cc1`, the Potency is reported as “inactive”.
With `O=C(NCc1cccs1)c1ccc(CSc2nc3ccncc3n2Cc2ccccc2F)cc1` the Potency was inconclusive: 22.4 µM [cytotoxic, partial curve, poor fit].
For `CC1CCCN(CCCNC(=O)c2cc3c(Cl)nc4ccccc4c3s2)C1` (stereo unspecified), the Potency was inconclusive: 39.8 µM [cytotoxic, single point].
In the case of `COc1cc(Cl)c(C)cc1Nc1nc2ccccc2n2cnnc12`, the Potency is reported as “inactive”.
With `CCOCCc1nn2c(=O)cc(COC(=O)c3ccc(NC(=O)C(C)(C)C)cc3)nc2s1` the Potency was “inactive”.
For `Cc1cc(Br)cc2c1N(Cc1ccccc1OC(C)C)C(=O)C2=O`, the Potency was inconclusive: 31.6 µM [cytotoxic, single point].
In the case of `Cc1cc(C)c(S(=O)(=O)NCC(c2ccco2)S(=O)(=O)c2cccs2)c(C)c1` (stereo unspecified), the Potency is reported as active: 17.8 µM.
For `COc1ccc(CCNC(=O)c2cc(=O)c3ccc(C)cc3o2)cc1OC`, the Potency was inconclusive: 39.8 µM [cytotoxic, single point].
With `CC(C)c1ccc(NC(=O)c2cnc3sc(N4CCOCC4)nn3c2=O)cc1` the Potency was inconclusive: 39.8 µM [cytotoxic, single point].
For `Cc1ccc(-n2ncc3c(Nc4cccc(C(F)(F)F)c4)ncnc32)cc1C`, the Potency was inconclusive: 39.8 µM [cytotoxic, single point].
In the case of `Cc1ccc(C(=O)NCC(c2ccco2)S(=O)(=O)c2ccc(Cl)cc2)cc1C` (stereo unspecified), the Potency is reported as inconclusive: 28.2 µM [cytotoxic, single point].
For `O=C(Nc1cc(Cl)cc(Cl)c1)c1cc(S(=O)(=O)N2CCC3(CC2)OCCO3)ccc1F`, the Potency was inconclusive: 39.8 µM [cytotoxic, single point].
In the case of `CCOc1ccc(Br)cc1S(=O)(=O)Nc1cccc(-c2ccc(OC)nn2)c1`, the Potency is reported as inconclusive: 39.8 µM [cytotoxic, single point].
With `Cc1ccc(Cl)cc1N1CCN(C(=O)c2ccc3c(c2)N(Cc2ccccc2)CCS3)CC1` the Potency was inconclusive: 10 µM [cytotoxic, partial curve].
In the case of `COc1ccc(-n2c(=O)c3c4c(sc3n(Cc3ccc(C(C)(C)C)cc3)c2=O)CCC4)c(OC)c1`, the Potency is reported as inconclusive: 20 µM [cytotoxic, single point].
With `COc1ccc(-n2c(=O)[nH]c3cc(C(=O)NCCc4ccc(Cl)cc4)ccc3c2=O)cc1OC` the Potency was inconclusive: 20 µM [cytotoxic, partial curve, poor fit].
With `COc1cc(OC)cc(C(=O)Nc2ccc(-c3nc4ccccc4s3)c(C)c2)c1` the Potency was “inactive”.
In the case of `Cc1ccc(NC(=O)c2nnn(Cc3cccc(C(F)(F)F)c3)c2N)c(C)c1`, the Potency is reported as inconclusive: 3.98 µM [cytotoxic, full curve, poor fit].
In the case of `CCCCNc1nc(Oc2ccc(=O)n(-c3ccccc3)n2)nc(N(CC)CC)n1`, the Potency is reported as inconclusive: 35.5 µM [cytotoxic, single point].
For `CCOC(=O)Cn1c(=O)c2c(nc(N3CCOCC3)n2Cc2ccccc2)n(C)c1=O`, the Potency was “inactive”.
With `CCc1ccc(CNC(=O)C2CCN(c3nnc(C)c4c(C)n(-c5ccc(C)cc5)nc34)CC2)cc1` the Potency was inconclusive: 39.8 µM [cytotoxic, single point].
In the case of `COc1cc(NC(=O)CSc2nc(-c3ccc(C(C)C)cc3)no2)cc(OC)c1`, the Potency is reported as “inactive”.
In the case of `COc1cccc(-c2nc3c(C#N)c[nH]n3c2NC2CCCC2)c1OC`, the Potency is reported as inconclusive: 11.2 µM [cytotoxic, partial curve].
With `CCN(CCCNC(=O)c1cc2c(=O)n(CC)c3ccccc3c2s1)Cc1ccccc1` the Potency was inconclusive: 39.8 µM [cytotoxic, single point].
For `Cc1ccc(S(=O)(=O)c2cnc(SCC(=O)Nc3ccc4c(c3)OCCO4)[nH]c2=O)cc1C`, the Potency was “inactive”.
With `O=C(Cn1cc(S(=O)(=O)N2CCCC2)c(S(=O)(=O)N2CCCC2)c1)Nc1ccc(F)cc1` the Potency was “inactive”.
With `COc1ccc(-n2cc(-c3ccc4c(c3)OCO4)n(CC(=O)Nc3cc(Cl)ccc3C)c2=O)cc1` the Potency was inconclusive: 39.8 µM [cytotoxic, single point].
In the case of `CCc1ccc(NS(=O)(=O)c2ccc3[nH]cc(C(=O)NCc4ccc(C)cc4)c(=O)c3c2)cc1`, the Potency is reported as inconclusive: 25.1 µM [cytotoxic, single point].
